# In all, about 44,000 compounds went through this assay and about 340 (0.77%) were called active. Not shown: some 5% with an inconclusive outcome. Calls come from the whole dose curve; as a rule, active = well fitted inhibition curve with a large enough effect; inconclusive = small, poorly fitted or top-dose-only effect; inactive = flat fitted curve, though single readings scatter. This is one part of the list.
# Assay: Acumen qHTS Assay for Inhibitors of the mTORC1 Signaling Pathway in MEF (Tsc2-/-, p53-/-) Cells: Sytravon;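 note: plate controls were DMSO for no effect and rapamycin for full effect; nearly all actives have a fitted effect of over 50% in size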
# Settings: phospho-rpS6 immunofluorescence/PI, 24 h; series mostly up to 38.3 µM; activity change, negative = inhibition: at the top concentration
# In short: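 Immunofluorescence of rpS6 phosphorylation in Tsc2-/-, p53-/- MEFs after 24 h compound exposure, normalized to propidium iodide signal. Activity is expressed as % positive cells, thresholded with 7.5 nM rapamycin.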
row,Compound,"activity change, negative = inhibition"
1,CCCN(CCC)S(=O)(=O)c1ccc2c(c1)N(CC(=O)NC(C)c1ccccc1)C(=O)CS2 (configuration not stated),inactive: 6.05%
2,COc1ccc(CNC(=O)c2cc(Nc3ccc(C)cc3C)nc3ccccc23)cc1,inactive: 3.45%
3,CCN(c1cccc(C)c1)S(=O)(=O)c1nnc(NC(=O)c2ccccc2Cl)s1,inactive: 3.12%
4,Cc1ccc2nc(-c3ccc(NC(=O)COc4ccccc4)cc3)sc2c1,inactive: 1.66%
5,COc1ccccc1N1CCN(C(=O)c2cc(-c3ccc(F)cc3)on2)CC1,inactive: -4.89%
6,CC(=O)c1ccc(N2C(=O)N(CC(=O)c3ccc(C)cc3)c3ccccc3S2(=O)=O)cc1,inactive: 6.36%
7,Cc1ccc2c(c1)N(C(=O)N1CCC(C(=O)NC3CCCCCC3)CC1)CC(C)O2 (configuration not stated),inactive: 11.2%
8,COc1cc(NC(=O)Cc2c(C(=O)O)c(C)cn2C)cc(OC)c1,inactive: 2.04%
9,CCOc1ccc(C2C(=O)N(C3CCCCC3)CC(=O)N2C2CCCC2)cc1OC (configuration not stated),inactive: 7.01%
10,COc1ccc(/C=C/C(=O)Nc2sc3c(c2C(N)=O)CCC(C)C3)cc1OC (configuration not stated),inactive: 9.43%
11,CCOC(=O)c1c(NC(=O)c2cc(C)on2)sc(C)c1C,inactive: -10.4%
12,CNC(=O)c1ccc(Nc2nnc(-c3ccc(C)c(S(=O)(=O)N4CCCCC4)c3)c3ccccc23)cc1,inactive: -1.54%
13,Cc1ccc(-n2ncc3c(N4CCN(C)CC4)ncnc32)cc1Cl,inactive: 8.94%
14,CCOc1ccc(NC(=O)CCS(=O)(=O)c2cccc3nonc23)cc1,inactive: -10.6%
15,CNC(=O)c1c[nH]c2ccc(S(=O)(=O)Nc3cccc(Cl)c3C)cc2c1=O,inactive: -0.595%
16,CCc1cccc(NC(=O)CSc2ncccc2C(=O)Oc2ccccc2Cl)c1,inactive: 5.88%
17,COc1ccc(CNC(=O)CCC(=O)N2CC3CCCN3c3ccccc32)c(OC)c1 (configuration not stated),inactive: 0.59%
18,Cc1cc(C)cc(OCc2ccc(C(=O)Nc3ccccc3F)o2)c1,inactive: 0.285%
19,Cc1cc(C)c2c(=O)cc(C(=O)Nc3sc4c(c3C(=O)NCc3cccnc3)CCCC4)oc2c1,inactive: 3.88%
20,CCC(Sc1nc2nccnc2c(=O)n1Cc1ccc(OC)cc1)C(=O)NC1CCCCC1 (configuration not stated),inactive: -3.15%
21,CC(C)C12CN3CC(C(C)C)(CN(C1)C3c1ccc(OCc3ccccc3)cc1)C2=O (configuration not stated),inactive: -2.1%
22,CCOc1ccccc1CNC(=O)c1ccc2c(c1)sc1nc(-c3cccc(OC)c3)cn12,inactive: 7.2%
23,CC(C)n1c(SCC(=O)Nc2ccc(F)cc2)nc2c(oc3ccccc32)c1=O,inactive: -3.5%
24,COC(=O)c1cc(S(=O)(=O)NCC2CCN(Cc3ccc(C)cc3)CC2)c[nH]1,inactive: 0%
25,CC(=O)c1cccc(NC(=O)c2ccc(-n3c(C)nnc3C)cc2)c1,inactive: 0.4%

row,Compound,"activity change, negative = inhibition"
1,CCOc1ccc(-n2c(SCC(=O)Nc3ccc(F)cc3)nc3c([nH]c4ccccc43)c2=O)cc1,inactive: 1.37%
2,CC(C)(C)OC(=O)N1CCC(c2nnc(SCc3ccccc3)o2)CC1,inactive: -0.982%
3,Cc1cc(NC(=O)COc2ccccc2)cc(-c2nc3ccccc3o2)c1O,inactive: -1.12%
4,O=C1OC(C(=O)Nc2ccc(Cl)c(C(F)(F)F)c2)Cc2ccccc21 (configuration not stated),inactive: 0.501%
5,COc1ccc(-c2noc(-c3ccc(N4CCCCC4C)c([N+](=O)[O-])c3)n2)cc1OC (configuration not stated),inactive: -2.42%
6,COc1ccccc1CNC(=O)c1ccc(N2Cc3cccc(OC)c3Oc3ncccc32)s1,inactive: -0.342%
7,CCCn1c(-c2cccc(Br)c2)nc2ccccc21,inactive: 0.685%
8,CCCN1C(=O)C(Cc2nc3ccccc3c(=O)n2-c2cccc(C)c2)c2ccccc21 (configuration not stated),inactive: -3%
9,Cn1ncc(C(=O)N2CCN(c3ccc(F)cc3)CC2)c1C1CCN(C(=O)OC(C)(C)C)CC1,inactive: 4.26%
10,Cc1ccc(C2=CC(c3c(F)cccc3Cl)n3ncnc3N2)cc1C (configuration not stated),inactive: -5.49%
11,CC(=O)Nc1cc(-c2nc3ccccc3s2)ccc1C,inactive: 7.38%
12,Cc1cc(C)cc(NC(=O)C2CCCN2S(=O)(=O)c2cccc3nsnc23)c1 (configuration not stated),inactive: -0.384%
13,CCn1c(-c2ccc(S(=O)(=O)N3CCOCC3)cc2)csc1=Nc1ccc(C)c(Cl)c1,inactive: 10.4%
14,O=C(CSc1nnc2[nH]c(=O)cc(-c3ccccc3)n12)Nc1ccc(F)cc1F,inactive: 2.51%
15,CCOC(=O)c1ccc(CN(Cc2ccccc2C)S(=O)(=O)c2ccc(C(C)(C)C)cc2)cc1,inactive: 8.85%
16,COc1cccc(C2C(C(=O)Nc3ccccc3)=C(C)Nc3nc(-c4ccccc4)nn32)c1OC (configuration not stated),inactive: 4.05%
17,Cc1cccc(-c2noc(-c3ccc(N4CCN(C)CC4)c([N+](=O)[O-])c3)n2)c1,inactive: -0.21%
18,COc1ccc(CNc2nc3c(c(=O)n(C)c(=O)n3C)n2Cc2ccccc2Cl)cc1,inactive: -2.06%
19,COc1ccc(C)cc1NC(=O)c1ccc2c(c1)CCN2S(=O)(=O)c1ccc(Cl)cc1,inactive: -5.79%
20,Cc1ccc(Cn2c(C)c(CNCCCc3ccccc3)c(C(=O)O)c2C)cc1,inactive: -2.31%
21,CCCCNC(=O)CSc1nnc(C)c2c(C)n(-c3ccccc3)nc12,inactive: 0%
22,CC1CCN(S(=O)(=O)c2ccc3c(c2)CCC(=O)N3CC(=O)Nc2cccc(C#N)c2)CC1,inactive: 0%
23,Cc1ccc(-c2cc3c(n2-c2ccc(C)cc2)CC(C)(C)CC3=O)cc1,inactive: 2.64%
24,Cc1ccc(-c2noc(CNC(=O)c3ccccc3)n2)cc1,inactive: 6.8%
25,CCC1CN(C(=O)N2CCC(C(=O)NCc3ccccc3C)CC2)c2ccccc2O1 (configuration not stated),inactive: 11.9%

row,Compound,"activity change, negative = inhibition"
1,CC(C)NC(=O)C1CCN(c2nc3ccccc3nc2C(F)(F)F)CC1,inactive: -4.38%
2,O=C(NCc1ccccc1)c1ccc(CSc2nc3cccnc3n2Cc2ccccc2F)cc1,inactive: -3.46%
3,O=C(NCCOCCn1c(=O)oc2ccccc21)Nc1ccc(F)cc1,inactive: 0.525%
4,COc1ccc(OCC(=O)Nc2cccc(-c3nc4ccccc4s3)c2C)cc1,inactive: -16.9%
5,Cc1nc(N2CCCC2)ncc1C(=O)Nc1ccc(F)cc1F,inactive: 0%
6,COc1ccccc1OCC(=O)Nc1nc(-c2ccc(Br)cc2)ns1,inactive: -0.874%
7,Cc1ccc(NC(=O)C2CCN(S(=O)(=O)c3c(C)noc3/C=C/c3ccco3)CC2)cc1C,inactive: 1.31%
8,Cc1cc2c(cc1S(=O)(=O)N(CCN(C)C)Cc1ccco1)OCC(=O)N2,inactive: 6.12%
9,Cc1ccc(S(=O)(=O)c2cn(C)c3cc(N4CCCC(C)C4)c(F)cc3c2=O)c(C)c1 (configuration not stated),inactive: 4.15%
10,Cc1ccc(CN2CCc3nc(N4CCN(C)CC4)ncc3C2)s1,inactive: 16.2%
11,Cc1ccc(-n2ncc3c(N4CCC(Cc5ccccc5)CC4)ncnc32)cc1,inactive: 7.76%
12,CC(C)(C)CC(=O)NC1CC(=O)N(c2ccc3c(c2)OCCO3)C1 (configuration not stated),inactive: -1.11%
13,O=C(c1ccc2c(c1)N(Cc1ccccc1F)C(=O)c1ccccc1S2=O)N1CCOCC1 (configuration not stated),inactive: 3.35%
14,Cc1cccc(N(C)C(=O)CSc2nc3ncccc3o2)c1,inactive: -7.86%
15,Cc1ccc2c(c1)cc1c(=O)n(CC(=O)N3CCCCC3)nc(C)n12,inactive: -1.09%
16,O=C(NCC1CCCO1)c1c[nH]c2ccc(S(=O)(=O)Nc3cccc(C(F)(F)F)c3)cc2c1=O (configuration not stated),inactive: -9.33%
17,COc1ccc2c(c1)c1c(c(=O)n(-c3ccccc3)c(=O)n1CC(=O)Nc1ccc(C)c(C)c1)n2C,inactive: 1.61%
18,CN(Cc1ccccc1)S(=O)(=O)c1nnc(NC(=O)c2ccccc2)s1,inactive: 6.95%
19,N#Cc1ccc(CSc2nc3c(c(=O)[nH]2)CCCC3)cc1,inactive: 1.02%
20,Cc1cccc(N(C)C(=O)CCNS(=O)(=O)c2ccc3c(c2)CCN3C(=O)C2CC2)c1,inactive: -1.12%
21,O=C(Nc1c(C(=O)Nc2ccccc2F)oc2ccccc12)c1cc2ccccc2o1,inactive: 1.28%
22,COC(=O)CCn1cnc2onc(-c3cc(F)cc(F)c3)c2c1=O,inactive: -3.39%
23,CC(C)Sc1ncc(Cl)c(C(=O)Nc2ccc(S(=O)(=O)N(C)c3ccccc3)cc2)n1,inactive: -9.85%
24,Fc1ccc2ncc3c(-c4ccccc4)n[nH]c3c2c1,inactive: 16%
25,Cn1ncc2c(Nc3cccc(F)c3)ncnc21,inactive: 0%

row,Compound,"activity change, negative = inhibition"
1,COc1cc(C(CC(=O)NCCC(C)C)N2Cc3ccccc3C2=O)cc(OC)c1OC (configuration not stated),inactive: -8.04%
2,COc1cc(NC(=O)CN2CCN(CC(=O)Nc3ccc(F)cc3)CC2)cc(OC)c1,inactive: 0.961%
3,CN(C(=O)c1cc2c(s1)-c1ccc(Cl)cc1SC2)c1cccc(C(F)(F)F)c1,inactive: -0.39%
4,O=C(CN1C(=O)COc2ccc(S(=O)(=O)N3CCCCC3)cc21)NCc1ccc(Cl)cc1,inactive: -3.18%
5,COc1ccc(CCNC(=O)c2cnc3sc(N4CCCC4)nn3c2=O)cc1OC,inactive: -1.68%
6,CSCCC(NS(=O)(=O)c1ccc2c(c1)oc(=O)n2C)C(=O)N1CCN(c2cccc(Cl)c2)CC1 (configuration not stated),inactive: -2.7%
7,Cc1ccc(CNC(=O)c2nnn(CC(=O)Nc3cc(C)ccc3C)c2N)cc1,inactive: -7.02%
8,Cc1ccc(CN(Cc2ccco2)C(=O)COc2ccc(Cl)cc2)o1,inactive: 1.04%
9,CCc1ccccc1NS(=O)(=O)c1ccc(NC(=O)N2CCCC2)cc1,inactive: 6.33%
10,COc1cc(NC(=O)c2cc3ccccn3n2)cc(OC)c1OC,inactive: -2.85%
11,CCOc1ccc(-c2cc(-c3nc(-c4cc(OC)c(OC)c(OC)c4)no3)[nH]n2)cc1,inactive: -6.56%
12,CC(=O)c1ccc(NC(=O)c2ccc(-c3nc(CSc4ccccc4)c(C)o3)cc2)cc1,inactive: -1.39%
13,Fc1ccc(-c2noc3ncnc(NCC4CCN(Cc5ccc(Cl)cc5)CC4)c23)cc1,inactive: -12.1%
14,COc1cc(NC(=O)c2cc(C)nc3c2c(C)nn3-c2ccccc2Cl)cc(OC)c1,inactive: 2.13%
15,Cc1ccc2cc3c(N)nn(C(=O)c4cccc(F)c4)c3nc2c1,inactive: -12.1%
16,Cc1cc(C)cc(NC(=O)Cn2nnc(-c3nc(-c4ccncc4)no3)c2N)c1,inactive: -4.07%
17,Cc1ccc(N2CCN(S(=O)(=O)c3ccc(F)c(C(=O)Nc4ccc(Cl)cc4Cl)c3)CC2C)cc1 (configuration not stated),inactive: 10.3%
18,Cc1cc2c(cc3c(SCc4nc(-c5ccccc5)oc4C)nnc(C)n32)o1,inactive: -0.889%
19,CCn1ccc2c(OCC(=O)Nc3ccccc3C)cccc2c1=O,inactive: -7.96%
20,O=C(Nc1ccc2nc(SCC(=O)N3CCCc4ccccc43)sc2c1)c1ccccc1,inactive: -12.3%
21,CCOC(=O)c1ccc(NC(=O)Nc2cc3c(cc2N2CCCC2)n(C)c(=O)n3C)cc1,inactive: 13.9%
22,COc1ccc(N2CCN(C(=O)c3cccc(NC(=O)c4nsc5ccccc45)c3)CC2)cc1,inactive: 0%
